# Laboratory results published in PubChem BioAssay AID1347417 (National Center for Advancing Translational Sciences (NCATS), 2020).
# Hit rate of the full screen: of about 120,000 compounds, about 5,300 (4.4%) were called active. Inconclusive results, whose numbers are uncertain, are shown with a selection of clear calls. Calls follow the shape of the dose curve; as a rule, active = well fitted inhibition curve with a large enough effect; inconclusive = small, poorly fitted or top-dose-only effect; inactive = no such curve, though single readings can be large or run the other way. Where the call is inconclusive, the potency comes from a doubtful curve fit.
# Assay: qHTS Primary assay for Inhibitors of Plasmodium falciparum Dd2 growth in vitro; also: nearly all actives have a fitted effect of over 65% in size;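 as to activity, negative = inhibition: plate controls were DMSO vehicle for no effect and reference drug for full effect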
# Settings: P. falciparum Dd2 growth, SYBR Green, 72 h; activity, negative = inhibition: at 28.9 µM (top of the series) unless noted; series mostly up to 28.9 µM
# Outline: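 Readout: SYBR Green fluorescence, 485 nm excitation, 535 nm emission, after ~16 h lysis at 37C. Before that, Dd2-infected red cells (2.5% hematocrit) grew 72 h with compound, 29 uM top final concentration.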
# Potency is read from the fitted curve at half-maximal effect; tags tell the direction and shape of the fitted curve.
SMILES,"activity, negative = inhibition",Potency,outcome
Cc1ccc(NC2=N[C@H]3[C@@H](O)[C@H](O)C[C@H](C(=O)N4CCC(C(N)=O)CC4)[C@H]3S2)cc1,inactive: 7.39% [at 44.1 µM],–,–
CN1C(=O)CCC2(CNC(=O)Nc3ccc4c(c3)OCCO4)CCC=C12 (stereo unspecified),–,"inconclusive: 10 µM [inhibitor, partial curve, poor fit]",–
CC(C)CSc1oc(-c2ccco2)nc1S(=O)(=O)c1ccc(Br)cc1,–,"inconclusive: 4.47 µM [inhibitor, partial curve, poor fit]",–
CN(C(=O)CSc1nc2ccccc2n1Cc1cccc(C(F)(F)F)c1)c1ccccc1,–,"inconclusive: 17.8 µM [inhibitor, single point]",–
COc1cc(NC(=S)N[C@H]2CO[C@H]3[C@@H]2OC[C@@H]3n2nnnc2Oc2cccc(N3CCOCC3)c2)cc(OC)c1,–,"inconclusive: 17.8 µM [inhibitor, single point]",–
O=C(Nc1ccc2ncnc(N3CCCCC3)c2c1)c1ccsc1,–,–,inactive
COc1ccc(-c2noc(CC3CCN(C(=O)c4ccc(OC)cc4OC)CC3)n2)cc1,–,"inconclusive: 5.01 µM [inhibitor, partial curve, poor fit]",–
CCOc1ccc(C2=CC(c3cc(Br)ccc3F)n3ncnc3N2)cc1Cl (stereo unspecified),–,active: 11.2 µM,–
CN(C1CCc2nn(C)c(=O)n2CC1)S(=O)(=O)c1cccc(C#N)c1 (stereo unspecified),inactive: 17.2%,–,–
CN1CCC(N2C[C@@H]3C[C@H]2C(=O)N(Cc2ccc(OC(F)(F)F)cc2)c2ccccc2O3)CC1,–,active: 10 µM,–
Cc1ccc(-c2cc3c(=O)n(CCNC(=O)Cc4ccc(Cl)cc4)ccn3n2)cc1C,–,"inconclusive: 8.91 µM [inhibitor, partial curve, poor fit]",–
CC[C@H]1CN2CC[C@H]1C[C@@H]2CNCc1cc2ccccc2o1,–,"inconclusive: 2.24 µM [inhibitor, full curve]",–
CC(C)c1noc(-c2cn(C3CCCN(C(=O)c4ccc(Cl)s4)C3)nn2)n1 (stereo unspecified),–,"inconclusive: 1.26 µM [inhibitor, partial curve, poor fit]",–
O=C(c1ccsc1)N1CCC(N2C(=O)C(O)C23CCCCC3)CC1 (stereo unspecified),inactive: -1.81%,–,–
CCC(Sc1nc2ccccc2c2nc(CCc3c(C)n[nH]c3C)nn12)C(=O)Nc1ccccc1F (stereo unspecified),–,"inconclusive: 4.47 µM [inhibitor, partial curve, poor fit]",–
CN(C)C[C@@H]1CN(S(C)(=O)=O)C[C@H]1NC(=O)c1ccc2ncccc2c1,inactive: 4.36%,–,–
COc1ccccc1Cn1c(CNS(=O)(=O)c2cccc([N+](=O)[O-])c2)nc2cccnc21,–,"inconclusive: 4.47 µM [inhibitor, partial curve, poor fit]",–
Cc1ccc(CNC(=O)c2ccc3c(c2)N(Cc2cccc(C)c2)C(=O)CS3)cc1,–,"inconclusive: 17.8 µM [inhibitor, partial curve, poor fit]",–
Cc1ccc(-c2nc3ccccc3[nH]2)cc1NC(=O)COc1cccc(C)c1C,–,active: 7.08 µM,–
CC(C)n1cccc1C(=O)N1CCC2(CC1)CC(c1ccccc1)CN2C (stereo unspecified),–,"inconclusive: 8.91 µM [inhibitor, partial curve]",–
NC(=O)c1cc[nH]c1C1CCCN(S(=O)(=O)c2cnc[nH]2)C1 (stereo unspecified),inactive: 0.533%,–,–

SMILES,"activity, negative = inhibition",Potency,outcome
CCCCOc1ccc(C(=O)N2CCC[C@H]2c2nc(-c3ccc(OC)cc3)no2)cc1,–,active: 11.2 µM,–
O=C(NCc1nnc2cc(-c3nc(C4CC4)no3)ccn12)C1CCCCC1,–,–,inactive
CCN(CC)Cc1cnc2c(C(=O)Nc3cccc(OC)c3)cnn2c1,–,"inconclusive: 11.2 µM [inhibitor, partial curve]",–
Cc1cc(C)cc(C(=O)N2CCCC(n3cc(-c4noc(C)n4)nn3)C2)c1 (stereo unspecified),–,"inconclusive: 17.8 µM [inhibitor, single point]",–
COc1cccc(-c2cnc([C@@H]3COCCN3Cc3ccc(NC(C)=O)cc3)[nH]2)c1,–,"inconclusive: 15.8 µM [inhibitor, single point]",–
CCN(CC)C(=O)C1=C(C)Nc2nc3ccccc3n2C1c1cccc(Cl)c1 (stereo unspecified),–,active: 11.2 µM,–
CCC(=O)N(C1CCOCC1)C1CCN(Cc2cc(F)ccc2F)CC1,–,"inconclusive: 1.26 µM [inhibitor, full curve, poor fit]",–
Cc1ccc(C)c(CN2C(=O)c3ccccc3Sc3ccc(C(=O)N4CCC5(CC4)OCCO5)cc32)c1,–,"inconclusive: 14.1 µM [inhibitor, single point]",–
CC(C)NC(=O)c1ccccc1OCC1CCCN(Cc2nccs2)C1 (stereo unspecified),–,"inconclusive: 5.62 µM [inhibitor, partial curve, poor fit]",–
Cc1nc2ccccc2n1CC(=O)N[C@@H]1COCC[C@@H]1OCC1CC1,inactive: -0.683%,–,–
CNC(=O)[C@@H](c1ccccc1F)N1CCC[C@H]1C(=O)N1CCOCC1,inactive: -7.23% [at 44.1 µM],–,–
O=C(NC[C@H]1Cn2ccnc2CO1)c1ccccc1,inactive: 21.2% [at 44.1 µM],–,–
COc1ccc(S(=O)(=O)Nc2ccc(C)n(CC(=O)NCc3ccco3)c2=O)cc1,–,–,inactive
CN(C)CCN(C)C(=O)c1ccc2c(c1)NC(C)(COc1ccc3[nH]ccc3c1)CO2 (stereo unspecified),–,"inconclusive: 5.01 µM [inhibitor, partial curve, poor fit]",–
O=C(NCc1ccccc1)[C@H]1CN2CCC1C[C@@H]2Cn1cc(CSc2ccccc2)nn1 (stereo partly specified),–,–,inactive
CC(C)CN1C(=O)N(Cc2ccccn2)C(=O)C12CCN(Cc1ccc3c(c1)CCO3)CC2,–,"inconclusive: 17.8 µM [inhibitor, partial curve, poor fit]",–
COc1ccc(OC)c(NC(=O)N2c3ccccc3Sc3ccccc32)c1,–,"inconclusive: 12.6 µM [inhibitor, partial curve]",–
COCCN[C@@H]1C[C@@H]2c3[nH]c4ccccc4c3C[C@@H](C(=O)OC)N2[C@H](c2ccc(C(F)(F)F)cc2)C1,–,"inconclusive: 8.91 µM [inhibitor, partial curve, poor fit]",–
CCc1ccc(C2c3c(-c4cc(C)ccc4O)n[nH]c3C(=O)N2Cc2cccnc2)cc1 (stereo unspecified),–,"inconclusive: 10 µM [inhibitor, partial curve, poor fit]",–
COc1ccc(C2=NOC3(CCCN([S+](=O)([O-])c4cccs4)C3)C2)cc1 (stereo unspecified),inactive: -7.63%,–,–
